This note sets out measurements from the supplement of paper PMC10300432.

In assay [1] the target is SARS-CoV-2 Omicron BA.1 spike pseudovirus. Kind of assay: pseudovirus neutralization IC50; higher = weaker neutralization. As for the experimental part:
(§1)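 Single-round luciferase reporter pseudovirus mixed with antibody dilutions and put on HT1080-ACE2 clone 14 cells for 48 h; signal relative to no-antibody wells, four-parameter fit.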

For assay [2], the target named is SARS-CoV-2 Omicron BA.4/5 spike pseudovirus. The assay is described as above. As for the experimental part: as §1
The target of assay [3] is SARS-CoV-2 Wuhan-Hu-1 spike pseudovirus. Described as above. As for the experimental part: as §1
Assay [4] concerns the target SARS-CoV-2 Wuhan-Hu-1 spike receptor-binding domain. In words: ELISA binding EC50; higher = weaker binding; ELISA of recombinant human antibody on coated antigen, from 10 µg/ml in fourfold dilutions; four-parameter fit. (In general: ELISA stands for enzyme-linked immunosorbent assay.)

Numbering of substitutions follows the chain as printed. Recombinant human monoclonal antibodies (heavy:light variable regions). ELISA EC50 on the named antigen, from 10 µg/ml down; IC50 against spike pseudovirus on HT1080-ACE2 cells, 48 h; lower = stronger. Calls: IC50 above 1,000 ng/ml = non-neutralizing; EC50 above 1,000 ng/ml = non-binder.

B1: C5059 (protein)
chain 1: EVQLVEAGGGLIQPGGSLRLSCAASEITVSSNYMSWVRQAPGKGLEWVSLIYSGGSTYYADSVKGRFTISRDSSKNTLYLQMNKLRVDDTAVYFCARVLPFGDYYFDYWGQGTLVTVSS
chain 2: QSVLTQPPSVSAAPGQKVTISCSGGGSNIGNMYISWYQQLPGTAPKLLIYDNNKRPSGIPDRFSGSKSGTSATLVITGLQTGDEADYYCGTWDDSLSVWVFGGGTKLTVL
B1: the “pseudovirus neutralization IC50” value was above 1000 ng/mL in assay [1], 455 ng/mL in assay [2] and 0.658 ng/mL in assay [3]. Also, in assay [4], the “ELISA binding EC50” value was determined as 2.75 ng/mL.

B2: C5072 (protein)
chain 1: QVQLVQSGAEVKKPGSSVKVSCTASGGPFRNNGFSWVRQAPGQGLEWMGVIIPMVGTASYAQKFQGRVTITADESTNTLFMELTTLRSDDTAVYYCARDRHVYGASLFFDYWGQGTLVTVSS
chain 2: DIQMTQSPSSLSASVGDRVTITCRASQTIGSYLNWYQQKPGKAPKVLIYAASTLQSGVPSRFSGSGSGADFTLTISGLQPEDFATYYCQQTYSAPRSFGQGTKLEIK
For B2, the entries for the “pseudovirus neutralization IC50” value in assay [1], in assay [2] and in assay [3] were 0.482 ng/mL, above 1000 ng/mL and 0.254 ng/mL, respectively. The “ELISA binding EC50” value in assay [4] amounted to 2.17 ng/mL.

B3: C5065 (protein)
chain 1: QVQLVQSGAAVKKPGSSVTVSCEASGGTLSSYTLTWVRQAPGQGLEWMGRLITTLGVEDYAQQFQGRVTITADKSTGTAYLELRSLRSEDTGVYYCAREAGYSGYGAAYYFDSWGQGTLVTVSS
chain 2: QSVLTQPPSVSGAPGQRVTISCTGSNSNIGAGYDVHWYQQLPGTAPKLLIYVNNNRPSGVPDRFSGSKSGTSASLAITGLQAEDEADYYCQTYDSSLSGSLFGGGTKVTVL
Regarding B3, the “pseudovirus neutralization IC50” value in assay [1] is 29.9 ng/mL; in assay [2], 416 ng/mL; in assay [3] it was 13.8 ng/mL. Besides, the “ELISA binding EC50” value in assay [4] is 2.72 ng/mL.

B4: C5066 (protein)
chain 1: B3 chain 1 with L29F, Y32H, M48L, L51I, T53P, T54I, E58A, R84S, S85R
chain 2: B3 chain 2 with S25T, N54S, L101V, V108L
Regarding B4, the results for the “pseudovirus neutralization IC50” value in assay [1], in assay [2] and in assay [3] were 9.61 ng/mL, 37 ng/mL and 9.54 ng/mL, respectively. In addition, in assay [4], the “ELISA binding EC50” value was determined as 0.354 ng/mL.

B5: C5060 (protein)
chain 1: QVQLVESGGGVVQPGRSLRLSCAASGFTFSNYVMHWVRQAPGKGLEWVAVIIYDGSIKYYADSVKGRFTVSRDNSKNTLFLQMNSLRPEDTALYYCAKGGPWSSSTPGIDYWGQGTLVTVSS
chain 2: DIQMTQSPSSLSASAGDRVTVTCQASQDISHYLNWYQQKPGKAPKLLIYDASNLETGVPSRFSGAGSGTHFTFTITNLQPEDFATYYCQQYSNLRLTFGGGTKVEIK
Take B5: the “pseudovirus neutralization IC50” value in assay [1] was above 1000 ng/mL; in assay [2], above 1000 ng/mL; in assay [3], 804 ng/mL. The “ELISA binding EC50” value in assay [4] came out at 4.82 ng/mL.

B6: C5071 (protein)
chain 1: QVQLVESGGGVVQPGRSLRLSCAASGFTFSTYVMHWVRQTPDRGLEWVAVISDDGSYKGYSDSLKGRFTISRDNSKNTVFLQMNSLRAEDTAVYYCARDIGAAVAGLIDAFDVWGQGTMVTVSS
chain 2: DIQMTQSPSSLSASVGDTVTITCRASQSITNYLNWYQQKPGKAPKLLIYAASTLQSGVPPRFSGTGSGTDFTLTISSLQPEDFATYYCQQSYTTFMYTFGQGTKLEIK
Take B6: the “pseudovirus neutralization IC50” value in assay [1], in assay [2] and in assay [3] was above 1000 ng/mL throughout. Besides, in assay [4], the “ELISA binding EC50” value stood at 3.81 ng/mL.

B7: C5067 (protein)
chain 1: QVQLVESGGGVVQPGRSLRLSCAASGFTFSDYAMHWVRQAPGKGLEWVSVISYDGSNEFHAASVRGRFTISRDNSKNTLSLQTNSLRVEDTAVYYCARESFRSLDYWGRGTLVTVSS
chain 2: DIQMTQSPSSLSASVGDRVTITCRASQSISSYLNWYQQKPGKAPKLLIYGASGLQSGVPSRFSGSGSGTDFTLTISSLQSEDSATYYCQQGFSPLFTFGPGTKVDIK
B7: the “pseudovirus neutralization IC50” value in assay [1] was determined as 132 ng/mL; in assay [2], 8.85 ng/mL; in assay [3], 1.75 ng/mL. In addition, in assay [4], the “ELISA binding EC50” value was found to be 3.51 ng/mL.

B8: C5068 (protein)
chain 1: B7 chain 1 with S80F, T83M, S85N
chain 2: B7 chain 2 with S80P, S83F
Regarding B8, the “pseudovirus neutralization IC50” value in assay [1] was found to be 251 ng/mL; in assay [2] it was 8.63 ng/mL; in assay [3], 1.47 ng/mL. In addition, the “ELISA binding EC50” value in assay [4] was determined as 2.08 ng/mL.

B9: C5062 (protein)
chain 1: QVQLVQSGAEVKRPGSSVKVSCKASGGTFSNYAISWVRQAPGPALEWMGGIIPMFGSAHYAQKFQGRVTITADESTSTAYMELRSLRSEDTAVYYCATRRARRVPAGGGGFHYYGLDVWGQGTTVTVSS
chain 2: DIVMTQSPLSLPVTAGEPASISCRSSQSLLHSNGYNYLDWYLQKPGQSPQLLIYLGSNRASGVPDRFSGSGSDTDFTLNISRVAAEDVGVYYCMQALQTPMYTFGQGTKLEIK
As to B9, the “pseudovirus neutralization IC50” value in assay [1], in assay [2] and in assay [3] was above 1000 ng/mL throughout. In addition, the “ELISA binding EC50” value in assay [4] was determined as 7.6 ng/mL.

B10: C5069 (protein)
chain 1: QVQLVQSGAEVKKPGASVKISCKASGYTLTSHYLHWVRQAPGQGLEWMGIINPDGGATTYAQNFQGRLSMTGDTSTSTIYMELSSLRSEDTAVYYCTRGFSFVPDIRGAFDIWGQGTMVTVS
chain 2: DIQMTQSPSTLSAFVGDRVTITCRASQSISRWLAWYQQKPGKAPKLLIYKASSLESGVPSRFSGSGSGTEFTLTISSLQPDDFATYYCQQYNSFTWTFGQGTKVEIK
B10: the “pseudovirus neutralization IC50” value in assay [1], in assay [2] and in assay [3] was above 1000 ng/mL each time. The “ELISA binding EC50” value in assay [4] came to 8.03 ng/mL.

B11: C5070 (protein)
chain 1: QVQLVQSGAEVKKPGASLKVSCKASGYTFTNYYMHWVRQVPGQGLEWMGIINPEAGSTTYAQKFQGRVTMTSDTSTSTLYMELSSLRSDDTAVYYCSRGFSFVPAIRGALHIWGQGTMVTVSS
chain 2: B10 chain 2 with F14S, R31T, K50R, S76N
On to B11, for which the “pseudovirus neutralization IC50” value in assay [1], in assay [2] and in assay [3] was above 1000 ng/mL in each case. In addition, the “ELISA binding EC50” value in assay [4] is 6.96 ng/mL.

B12: C5073 (protein)
chain 1: QVQLVQSGAEVKKPGSSVKVSCKASGGAFINYIITWMRQAPGQGLEWMGGIIPAFGAAVYAQKFQGRVSITADESTGTAYMDLGSLRSEDTALYYCASPGPKPYCSGGSCYRYYFNYWGQGTLVTVSS
chain 2: EIVLTQSPGTLSLSPGERATLSCRASEIVSSSSLAWYQQRPGQAPRLLMYGASSRATGIPDRFSGSGSGTDFTLTISRLEPEDFAVYYCQQYGSWITFGQGTRLEIK
Turning to B12, the “pseudovirus neutralization IC50” value in assay [1], in assay [2] and in assay [3] was above 1000 ng/mL throughout. Besides, the “ELISA binding EC50” value in assay [4] turned out to be 7.11 ng/mL.

B13: C5063 (protein)
chain 1: QVQLVESGGGVVQPGRSLRLSCAASGFTFSSYSMHWVRQAPGKGLDWLAVISDDGTMKFYADSVKGRFTISRDNSNNTLHLQMNSLRAEDTAVYYCARDTDTSRVPDLDYWGQGTLVTVSS
chain 2: DIQMTQSPSSLSASVGDRVTITCRASQGISTYLNWYQQKPGKAPKLLIYAASSLQSGVPSRFSGSGSGTDFTLTISSLQPEDFATYYCQQSYSSPPVTFGQGTRLEIK
B13: the “pseudovirus neutralization IC50” value in assay [1], in assay [2] and in assay [3] was above 1000 ng/mL in each case. The “ELISA binding EC50” value in assay [4] turned out to be 5.81 ng/mL.

B14: C5064 (protein)
chain 1: B13 chain 1 with G10N, D53S, T69I, N76R, N77K, R87T, V93L, R104M, P106T
chain 2: B13 chain 2 with V15I, T22I, G28S, S30T, S53T, S60A, S93I, S94I
Regarding B14, the “pseudovirus neutralization IC50” value was above 1000 ng/mL in assay [1], above 1000 ng/mL in assay [2] and 656 ng/mL in assay [3]. In addition, the “ELISA binding EC50” value in assay [4] was 4.7 ng/mL.

B15: C5315 (protein)
chain 1: QLQLQESGPGLVKPSETLSLTCTVSGDSIGSISYYWGWIRQPPGKGLEWIGSIYYSGTIYLNPSLESRVTISLDTSKNQFSLKLRSVTAADTAVYYCARLPLGDLPDYWGQGTLVTVSS
chain 2: EIVLTQSPGTLSLSPGERATLSCRASQSVSSSYFAWYQQKPGQAPRLLIYGAFTRATGIPDRFSGSGSGTDFTLTISRLEPEDFAVYYCQQYGSSPRALTFGGGTKVEIK
Take B15: the “pseudovirus neutralization IC50” value was above 1000 ng/mL in assay [1], above 1000 ng/mL in assay [2] and 2.4 ng/mL in assay [3]. Moreover, in assay [4], the “ELISA binding EC50” value stood at 3.71 ng/mL.
